From the supplement of paper PMC8728848
This is one part of the list.

Key:
Experiment in all cases: glycan array binding signal (z-score within array); higher = stronger binding
Conditions in all cases: glycan notation: IUPAC condensed, linker removed
[1] = target: Neu5Ac(a2-3)Gal(b1-3)[Fuc(a1-4)]GlcNAc(b1-3)Gal(b1-4)[Fuc(a1-3)]GlcNAc
In short: (§1)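 Arrays were curated from the Consortium for Functional Glycomics database, 3228 in total, and kept only where the protein sequence was available. Binding is expressed as a within-array Z-score. This score was averaged across arrays of the same protein sequence at different concentrations or buffers and across linkers, and negative values can be read as non-binding.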

[2] = target: Neu5Ac(a2-3)Gal(b1-3)[Neu5Ac(a2-3)Gal(b1-4)]GlcNAc
In short: as §1

[3] = target: Neu5Ac(a2-3)Gal(b1-3)[Neu5Ac(a2-6)]GalNAc
In short: as §1

[4] = target: Neu5Ac(a2-3)Gal(b1-4)Glc
In short: as §1

[5] = target: Neu5Ac(a2-3)Gal(b1-4)GlcNAc
In short: as §1

[6] = target: Neu5Ac(a2-3)Gal(b1-4)GlcNAc(b1-2)Man(a1-3)[GlcNAc(b1-2)Man(b1-4)GlcNAc(b1-2)Man(a1-6)]Man(b1-4)GlcNAc(b1-4)GlcNAc
In short: as §1

[7] = target: Neu5Ac(a2-3)Gal(b1-4)GlcNAc(b1-2)Man(a1-3)[Neu5Ac(a2-6)Gal(b1-4)GlcNAc(b1-2)Man(a1-6)]Man(b1-4)GlcNAc(b1-4)GlcNAc
In short: as §1

[8] = target: Neu5Ac(a2-3)Gal(b1-4)GlcNAc(b1-3)Gal(b1-3)GlcNAc
In short: as §1

[9] = target: Neu5Ac(a2-3)Gal(b1-4)GlcNAc(b1-3)Gal(b1-4)GlcNAc
In short: as §1

[10] = target: Neu5Ac(a2-3)Gal(b1-4)GlcNAc(b1-3)Gal(b1-4)GlcNAc(b1-3)Gal(b1-4)GlcNAc
In short: as §1

[11] = target: Neu5Ac(a2-3)Gal(b1-4)GlcNAc(b1-3)Gal(b1-4)[Fuc(a1-3)]GlcNAc
In short: as §1

[12] = target: Neu5Ac(a2-3)Gal(b1-4)GlcNAc(b1-6)[Gal(b1-3)]GalNAc
In short: as §1

[13] = target: Neu5Ac(a2-3)Gal(b1-4)GlcNAc(b1-6)[Neu5Ac(a2-3)Gal(b1-3)]GalNAc
In short: as §1

[14] = target: Neu5Ac(a2-3)Gal(b1-4)GlcNAc6S
In short: as §1

[15] = target: Neu5Ac(a2-3)Gal(b1-4)[Fuc(a1-3)]GlcNAc
In short: as §1

[16] = target: Neu5Ac(a2-3)Gal(b1-4)[Fuc(a1-3)]GlcNAc(b1-3)Gal
In short: as §1

[17] = target: Neu5Ac(a2-3)Gal(b1-4)[Fuc(a1-3)]GlcNAc(b1-3)Gal(b1-4)GlcNAc
In short: as §1

[18] = target: Neu5Ac(a2-3)Gal(b1-4)[Fuc(a1-3)]GlcNAc(b1-3)Gal(b1-4)[Fuc(a1-3)]GlcNAc(b1-3)Gal(b1-4)[Fuc(a1-3)]GlcNAc
In short: as §1

[19] = target: Neu5Ac(a2-3)Gal(b1-4)[Fuc(a1-3)]GlcNAc(b1-6)[Gal(b1-3)]GalNAc
In short: as §1

[20] = target: Neu5Ac(a2-3)Gal(b1-4)[Fuc(a1-3)]GlcNAc6S
In short: as §1

[21] = target: Neu5Ac(a2-3)Gal6S(b1-4)GlcNAc
In short: as §1

[22] = target: Neu5Ac(a2-3)Gal6S(b1-4)[Fuc(a1-3)]GlcNAc
In short: as §1

[23] = target: Neu5Ac(a2-3)GalNAc
In short: as §1

[24] = target: Neu5Ac(a2-3)GalNAc(b1-4)GlcNAc
In short: as §1

[25] = target: Neu5Ac(a2-3)[GalNAc(b1-4)]Gal(b1-4)Glc
In short: as §1

[26] = target: Neu5Ac(a2-3)[GalNAc(b1-4)]Gal(b1-4)GlcNAc
In short: as §1

[27] = target: Neu5Ac(a2-3)[Neu5Ac(a2-6)]GalNAc
In short: as §1

[28] = target: Neu5Ac(a2-6)Gal
In short: as §1

[29] = target: Neu5Ac(a2-6)Gal(b1-4)Glc
In short: as §1

[30] = target: Neu5Ac(a2-6)Gal(b1-4)GlcNAc
In short: as §1

[31] = target: Neu5Ac(a2-6)Gal(b1-4)GlcNAc(b1-2)Man(a1-3)[Gal(b1-4)GlcNAc(b1-2)Man(a1-6)]Man(b1-4)GlcNAc(b1-4)GlcNAc
In short: as §1

[32] = target: Neu5Ac(a2-6)Gal(b1-4)GlcNAc(b1-2)Man(a1-3)[GlcNAc(b1-2)Man(a1-6)]Man(b1-4)GlcNAc(b1-4)GlcNAc
In short: as §1

[33] = target: Neu5Ac(a2-6)Gal(b1-4)GlcNAc(b1-2)Man(a1-3)[GlcNAc(b1-2)Man(b1-4)GlcNAc(b1-2)Man(a1-6)]Man(b1-4)GlcNAc(b1-4)GlcNAc
In short: as §1

[34] = target: Neu5Ac(a2-6)Gal(b1-4)GlcNAc(b1-2)Man(a1-3)[Neu5Ac(a2-6)Gal(b1-4)GlcNAc(b1-2)Man(a1-6)]Man(b1-4)GlcNAc(b1-4)GlcNAc
In short: as §1

[35] = target: Neu5Ac(a2-6)Gal(b1-4)GlcNAc(b1-2)Man(a1-6)[Gal(b1-4)GlcNAc(b1-2)Man(a1-3)]Man(b1-4)GlcNAc(b1-4)GlcNAc
In short: as §1

[36] = target: Neu5Ac(a2-6)Gal(b1-4)GlcNAc(b1-2)Man(a1-6)[GlcNAc(b1-2)Man(a1-3)]Man(b1-4)GlcNAc(b1-4)GlcNAc
In short: as §1

[37] = target: Neu5Ac(a2-6)Gal(b1-4)GlcNAc(b1-3)Gal(b1-4)GlcNAc
In short: as §1

[38] = target: Neu5Ac(a2-6)Gal(b1-4)GlcNAc(b1-3)Gal(b1-4)[Fuc(a1-3)]GlcNAc(b1-3)Gal(b1-4)[Fuc(a1-3)]GlcNAc
In short: as §1

[39] = target: Neu5Ac(a2-6)Gal(b1-4)GlcNAc6S
In short: as §1

[40] = target: Neu5Ac(a2-6)GalNAc
In short: as §1

[41] = target: Neu5Ac(a2-6)GalNAc(b1-4)GlcNAc
In short: as §1

[42] = target: Neu5Ac(a2-8)Neu5Ac
In short: as §1

[43] = target: Neu5Ac(a2-8)Neu5Ac(a2-3)Gal(b1-4)Glc
In short: as §1

[44] = target: Neu5Ac(a2-8)Neu5Ac(a2-3)[GalNAc(b1-4)]Gal(b1-4)Glc
In short: as §1

[45] = target: Neu5Ac(a2-8)Neu5Ac(a2-8)Neu5Ac
In short: as §1

[46] = target: Neu5Ac(a2-8)Neu5Ac(a2-8)Neu5Ac(a2-3)Gal(b1-4)Glc
In short: as §1

[47] = target: Neu5Ac(a2-8)Neu5Ac(a2-8)Neu5Ac(a2-3)[GalNAc(b1-4)]Gal(b1-4)Glc
In short: as §1

[48] = target: Neu5Ac(a2-8)Neu5Ac(a2-8)Neu5Ac(a2-8)Neu5Ac(a2-3)[GalNAc(b1-4)]Gal(b1-4)Glc
In short: as §1

[49] = target: Neu5Ac(b2-6)Gal(b1-4)GlcNAc
In short: as §1

[50] = target: Neu5Ac(b2-6)GalNAc
In short: as §1

[51] = target: Neu5Ac9Ac(a2-6)Gal(b1-4)GlcNAc
In short: as §1

[52] = target: Neu5Gc(a2-3)Gal(b1-3)GlcNAc
In short: as §1

[53] = target: Neu5Gc(a2-3)Gal(b1-3)[Fuc(a1-4)]GlcNAc
In short: as §1

[54] = target: Neu5Gc(a2-3)Gal(b1-4)Glc
In short: as §1

[55] = target: Neu5Gc(a2-3)Gal(b1-4)GlcNAc
In short: as §1

[56] = target: Neu5Gc(a2-3)Gal(b1-4)[Fuc(a1-3)]GlcNAc
In short: as §1

[57] = target: Neu5Gc(a2-6)Gal(b1-4)GlcNAc
In short: as §1

[58] = target: Neu5Gc(a2-6)GalNAc
In short: as §1

[59] = target: Neu5Gc(b2-6)Gal(b1-4)GlcNAc
In short: as §1

B1: HFR-1 (Triticum aestivum) (protein)
chain: MSPQSFTLETTTTTPAAKGSDPSYFQSAPACHEMIQHKELLLHLYAYQNVQKTPDANQAVIVESKRPECFGILAANDWTVYDGPAHNANLVAHAQGLHLGASMAKENWFICFNMVFVNQRFTGSSFKVMGDFQGTAHNGEWAIVGGTGEFAYAQGVIAFKKTQQSERNARMELHVRAMCLSFLRPLLSLGDGSAVAKIGPWGKMSGELLDIPSTPQRLERITIRHGVVIDSLAFSFIDKAGEPYNVGPWGGRRGDNKDTIELAPSEIVTEVSGTVGIFAEDNVEYNAIASLTITTNHRPYGPFGETQSTPFSVPVQDNNNIVGFFACAGKYVEALGVYVRSPVST
glycan array binding signal (z-score) [1]: -0.207
glycan array binding signal (z-score) [2]: -0.228
glycan array binding signal (z-score) [3]: -0.142
glycan array binding signal (z-score) [4]: -0.188
glycan array binding signal (z-score) [5]: -0.221
glycan array binding signal (z-score) [6]: -0.177
glycan array binding signal (z-score) [7]: -0.218
glycan array binding signal (z-score) [8]: -0.206
glycan array binding signal (z-score) [9]: -0.189
glycan array binding signal (z-score) [10]: -0.221
glycan array binding signal (z-score) [11]: -0.212
glycan array binding signal (z-score) [12]: -0.066
glycan array binding signal (z-score) [13]: -0.224
glycan array binding signal (z-score) [14]: -0.22
glycan array binding signal (z-score) [15]: -0.064
glycan array binding signal (z-score) [16]: -0.121
glycan array binding signal (z-score) [17]: -0.187
glycan array binding signal (z-score) [18]: -0.081
glycan array binding signal (z-score) [19]: 0.098
glycan array binding signal (z-score) [20]: -0.192
glycan array binding signal (z-score) [21]: -0.213
glycan array binding signal (z-score) [22]: -0.22
glycan array binding signal (z-score) [23]: -0.206
glycan array binding signal (z-score) [24]: -0.172
glycan array binding signal (z-score) [25]: -0.024
glycan array binding signal (z-score) [26]: -0.165
glycan array binding signal (z-score) [27]: -0.189
glycan array binding signal (z-score) [28]: -0.228
glycan array binding signal (z-score) [29]: -0.192
glycan array binding signal (z-score) [30]: -0.223
glycan array binding signal (z-score) [31]: -0.196
glycan array binding signal (z-score) [32]: -0.211
glycan array binding signal (z-score) [33]: -0.187
glycan array binding signal (z-score) [34]: -0.12
glycan array binding signal (z-score) [35]: -0.222
glycan array binding signal (z-score) [36]: -0.066
glycan array binding signal (z-score) [37]: -0.221
glycan array binding signal (z-score) [38]: -0.21
glycan array binding signal (z-score) [39]: -0.187
glycan array binding signal (z-score) [40]: -0.031
glycan array binding signal (z-score) [41]: -0.093
glycan array binding signal (z-score) [42]: -0.202
glycan array binding signal (z-score) [43]: -0.144
glycan array binding signal (z-score) [44]: -0.184
glycan array binding signal (z-score) [45]: -0.214
glycan array binding signal (z-score) [46]: -0.211
glycan array binding signal (z-score) [47]: -0.078
glycan array binding signal (z-score) [48]: 0.01
glycan array binding signal (z-score) [49]: -0.205
glycan array binding signal (z-score) [50]: -0.141
glycan array binding signal (z-score) [51]: -0.219
glycan array binding signal (z-score) [52]: -0.226
glycan array binding signal (z-score) [53]: -0.217
glycan array binding signal (z-score) [54]: -0.132
glycan array binding signal (z-score) [55]: -0.221
glycan array binding signal (z-score) [56]: -0.219
glycan array binding signal (z-score) [57]: -0.23
glycan array binding signal (z-score) [58]: 0.118
glycan array binding signal (z-score) [59]: -0.197
